The record followed here is the supplement of paper PMC11417369.

The list shows a part of the results.

The assay has as its system PfAP2-HC AP2 domain (GST-tagged). Nature of the assay: gcPBM binding intensity (ln(normalized median fluorescence intensity)); higher = stronger DNA binding. The essentials:
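Alexa488 anti-GST antibody, scanned at 488 nm, detected GST-tagged P. falciparum DNA-binding domains that had been expressed in E. coli and incubated for 1 h on an Agilent 4 × 180k array. The array carried primer-extended double-stranded 36-bp intergenic genomic probes and negative controls. Binding intensity is the highest Masliner-normalised natural-log median intensity across replicate spots of either orientation of each probe.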
Take “CACAAACAAAAACACACACACACACCGACAAAAATG [CACACA_site5362]”: the “gcPBM binding intensity (ln)” value is 10.6. With “AGAAAGAAGATATATACACACAAAAAAAGATATATA [CACACA_site6779]” the figure was 9.92; with “AAAAGAAGATAATACAGTACAGAATAATATAAAATA [XGTACX_site5962]”, 9.81; with “TATAAATATTTATACACACACACATTAATACCTATA [CACACA_site7604]”, 10.4.

“TTCTTTCTAGAATATTGTACATATATTGTTATTATA [XGTACX_site8425]”: the “gcPBM binding intensity (ln)” value was determined as 9.72. With “GTCGAGGATATATAAAGTACATATATATATATGATA [XGTACX_site1128]” the figure was 9.6.

On to “TAATGTATCTAAAATTGTACAAATATAAATATAAAT [XGTACX_site2764]”, for which the “gcPBM binding intensity (ln)” value was 9.7. The value for TAGTTAGCCCAAGGGGTGCTAATTACTATCTAAATA was 9.4. With “CATACATATAAACACACACACACACCCACCCACAAA [CACACA_site8059]” the figure was 10.6; with “AACACCAATTCATATGCACACACATCTGCATATTAT [CACACA_site8523]”, 10.3.

As for “TTTATAAATATTCTCACACACTTTTTATTTTAACAA [CACACA_site6454]”, the “gcPBM binding intensity (ln)” value is 9.77.

Regarding “TATAGAAGCAAATTATGTACACAATATGGAAAATCA [XGTACX_site3345]”, the “gcPBM binding intensity (ln)” value came to 9.85. With “TACAGTTTTTCTTTGAATTTATCAAGTTTTTTTCCC [XGTACX_negctrl_site60]”, the “gcPBM binding intensity (ln)” value came to 9.52. With “ATTTAAAAAATATATTGTACATATTTTATTATGTTT [XGTACX_site2984]” the figure was 9.69; with “CACTAAATAAGGAAAGTGCATAAAATAAAGGTTATA [GTGCAC_site9793]”, 9.69. The value for “TAGTTACCTTAATATTGTACTTTTCTTTCATATATG [XGTACX_site1309]” was 9.66; that for “GTGTCAAATTTTATAACACACAAAAGGTTATATAAG [CACACA_site7839]” was 9.66.

With “ATAGTTTCTGGTAGCTGTACGAGTCGTAGAGTGCAG [XGTACX_site2022]”, the “gcPBM binding intensity (ln)” value was 9.75. Take “CATTATTATTTTATAACACACACATATATATTATAT [CACACA_site8405]”: the “gcPBM binding intensity (ln)” value was determined as 10.2. The value for “ATGTTTTTTATTCTTCGTACGTATGAACGATAGTGT [XGTACX_site4225]” was 9.74; that for “AAACGTATGTTATTTACACACCCTTCCACTTTTATA [CACACA_site3337]” was 10; that for “TATAAAATAAGACATGCATGTTATACATATATATTT [TGCATGCA_site156]” was 10. The value for “AAATTAAAAAAAAATAAATAAAAAAAAAAAAAAAAT [CACACA_negctrl_site1611]” was 9.66.

Turning to “TTTTTTTTTTCTACAAGTACATATTTTCATTTAACA [XGTACX_site6621]”, the “gcPBM binding intensity (ln)” value was determined as 9.6.

Regarding “AAAAAAAAAAAAAAATGTACATATATATATTATAAA [XGTACX_site518]”, the “gcPBM binding intensity (ln)” value came to 9.5.

Regarding “ATGTGCAAATATTAAAGTACTAAATTTTATTATTTT [XGTACX_site7306]”, the “gcPBM binding intensity (ln)” value amounted to 9.66. With “ATAAATACATATAAAAGTACACACACACACATATAT [XGTACX_site1744]” the figure was 10.9; with “TGAAATTTCAATACATGTACATATAAAAAAAAAAAA [XGTACX_site4424]”, 9.67. The value for “TGTATATGTGAAGCAAGGGATGCGGCAGACATAACA [CACACA_negctrl_site1339]” was 9.95.

With “GGGTATATATTATTATGTACACATGTATAAAATAAG [XGTACX_site2633]”, the “gcPBM binding intensity (ln)” value was determined as 9.65.

In the case of “ATATTACATAATATATGTACACACGCAAATACTTAT [XGTACX_site671]”, the “gcPBM binding intensity (ln)” value came to 9.9.

Regarding “CAGATAGACTTATATGCATGCATTCACCTGCCAACA [TGCATGCA_site158]”, the “gcPBM binding intensity (ln)” value is 9.66.

With “TAAGCATAAATGTATACATGCGATGCATACACATAT [TGCATGCA_site749]”, the “gcPBM binding intensity (ln)” value was 9.55. With “ATGAAATTATATTGGGGTACGTCAAAAAAGGAGATA [XGTACX_site7451]” the figure was 9.59; with “TTTGTGTATATATAATGTACATTATATTTTTATTAT [XGTACX_site6506]”, 9.88; with “ATTAAAAAAAAAGAGCGTACAAATAATTACTTCTTT [XGTACX_site8262]”, 9.52. With “TATAAATTTATAAATAGTACATATATTTATATATAT [XGTACX_site6433]” the figure was 9.54; with “TATATATATGGACACACACACACATATATATATATA [CACACA_site6121]”, 11.3; with “AAAAAAAATATACATACATGCATACATAAGTTTCTA [TGCATGCA_site998]”, 9.62. For “AAAAAAAAAAAAATTACACACATACATATAATAATA [CACACA_site8680]”, the “gcPBM binding intensity (ln)” value came out at 9.89. The value for “ATATTAAGAATAAACAGTACATATAATAAATACCAT [XGTACX_site5933]” was 9.86; that for “AAAAAAAAAAAAAAATGTACATATATATATATATTA [XGTACX_site7330]” was 9.45. The value for “ATAAAATAAGACAAAAAAAAAATATATATATATATA [TGCATGCA_negctrl_site314]” was 9.86; that for “CCTTGTCTTTTTTTTTTTTTTTTTTCTTCTTATTTT [GTGCAC_negctrl_site523]” was 9.64.

With “AGTAGATATAATATATGTACATATATATATATATAT [XGTACX_site7186]”, the “gcPBM binding intensity (ln)” value amounted to 9.72. With “AATAAATTTAAACACACACACACATATATATATATA [CACACA_site4621]” the figure was 10.4. The value for “TATATACATAAACACACACACACATATATATATATA [CACACA_site8707]” was 10.4; that for “TGCATATACTCAAGCACACATATATATATATATATA [CACACA_site4733]” was 9.71; that for “AATTAATGGTTAAAGGTGCACAATACATATATTACA [GTGCAC_site9943]” was 9.95. For “ATATATTGAAAATATAGTACATAATAAATGTTCTTT [XGTACX_site8474]”, the “gcPBM binding intensity (ln)” value was determined as 9.52. The value for “CCGTACAATTTTGTCACACATAAAATACTTATGTAT [CACACA_site4871]” was 9.77; that for “AATGTAGTTTATCGATGTACACAAAATAAAGAGAAG [XGTACX_site6956]” was 9.81; that for “TAGTATTTATATGATTAACACACATATGGGTATTAA [CACACA_site8363]” was 9.62.

Turning to “ATAATGTTCACATAGGTGCACTAATATAATTATCCA [GTGCAC_site9981]”, the “gcPBM binding intensity (ln)” value was 9.69.

Consider “AAAAAAAAAAAAAAAAGTACTCAATAATAATTACAT [XGTACX_site670]”, for which the “gcPBM binding intensity (ln)” value came to 9.46. The value for “CATAATAGTTATAAAATACACACCAGGCATGATAAA [CACACA_site329]” was 9.73. Turning to ATATACACCTGAGAGGTGCATATATATAAAATTTAC, the “gcPBM binding intensity (ln)” value came to 9.52.
